According to PubChem BioAssay AID485344 (National Center for Advancing Translational Sciences (NCATS), 2010):
Hit rate of the full screen: of about 340,000 compounds, about 6,900 (2%) were called active. No stated cut-off is given here; in the data, active means inhibition above about 30%; inactive means below that, where a call was filed. This is a selection; strong and weak results do not stand in their true shares. Entries without a call were filed so in the source.

Molecular target: D(2) dopamine receptor (Homo sapiens) (UniProt P14416)
Assay: HTS Assay for Allosteric Antagonists of the Human D2 Dopamine Receptor: Primary Screen for Antagonists; further: 0% is about no effect
Conditions: HEK293 TREx D2 cells, calcium flux, dopamine EC80; at 10 µM; stronger effect = higher value
Summary of the method: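 Cells plated overnight at 30 C with tetracycline; no-wash calcium dye, 30–90 min RT; 10 s baseline; compound pinned; 180 s read; EC80 dopamine added; another 180 s read.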

UniProt P14416, sequence (P14416 whole entry, looked up): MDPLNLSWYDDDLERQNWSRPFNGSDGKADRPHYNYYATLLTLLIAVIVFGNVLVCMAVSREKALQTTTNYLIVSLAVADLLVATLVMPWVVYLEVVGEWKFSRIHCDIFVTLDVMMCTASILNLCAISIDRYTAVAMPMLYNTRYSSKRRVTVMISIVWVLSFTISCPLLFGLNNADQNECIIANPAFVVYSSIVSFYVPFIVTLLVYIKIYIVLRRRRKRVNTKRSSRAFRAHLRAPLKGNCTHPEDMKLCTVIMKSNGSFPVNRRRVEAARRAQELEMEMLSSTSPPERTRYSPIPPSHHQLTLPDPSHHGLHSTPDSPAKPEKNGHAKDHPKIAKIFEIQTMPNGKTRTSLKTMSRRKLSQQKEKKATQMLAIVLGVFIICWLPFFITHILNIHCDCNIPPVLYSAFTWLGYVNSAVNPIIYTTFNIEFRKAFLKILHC

SMILES | inhibition
Cc1cccc(Nc2ncnc3onc(-c4ccc(Cl)cc4)c23)c1C | 15.5%
Cc1ccc2oc3c(c(=O)c2c1)C(c1ccc(O)cc1)N(CCCN(C)C)C3=O (stereo not given) | 3.19%
Cc1ccc(-n2c(=O)c3cccnc3n2CC(=O)NCc2ccc(Cl)cc2)cc1 | -16.2%
COC(=O)c1ccc([C@@H]2Nc3c(OC)ccc(C)c3[C@@H]3C=CC[C@@H]32)cc1 | -23.7%
Nc1c(C(=O)Nc2ccc(F)cc2)sc2nc(-c3cccs3)cc(C(F)(F)F)c12 | -17%
Cc1cc(F)ccc1NC(=O)C(c1ccccc1)N1Cc2ccccc2C1=O (stereo not given) | 13.6%
COc1ccc(C(=O)Nc2cccc(C(=O)OCc3cc(=O)n4nc(C5CC5)sc4n3)c2)cc1 | 2.84%
O=C(Cc1ccccc1)Nc1sc2c(c1C(=O)Nc1ccccc1Cl)CCCCC2 | 3.02%
CCCN1CCN(c2nc(-c3cccs3)nc3ccccc23)CC1 | active: 36.6%
CC(C)c1ccc(NC(=O)CSC2=Nc3ccccc3C3=NC(CCC(=O)NC4CCCCC4)C(=O)N23)cc1 (stereo not given) | -7.56%
Cn1cccc1CNC(=O)Nc1ccc(Cl)cc1 | active: 30.6%
COC(=O)c1cc(Nc2nc3ccccc3nc2NS(=O)(=O)c2ccc(C)cc2)ccc1Cl | 1.8%
COc1ccc2c(c1)CCc1c(C(=O)Nc3cc(OC)c(Cl)cc3OC)noc1-2 | 21.3%
Oc1ccccc1N1CCN(C(c2ccccc2)c2ccccc2)CC1 | active: 30.3%
O=C(Cn1c(=O)n(Cc2nc(-c3ccccc3)no2)c(=O)c2cc3c(cc21)OCO3)Nc1ccccc1 | 11.3%
O=C(Nc1ccc(F)cc1)N1CCn2c(nc3ccccc32)C1 | active: 33.4%
CCOc1ccc(-n2c(SCC(=O)Nc3cc(C)ccc3C)nc3c([nH]c4ccccc43)c2=O)cc1 | 5.91%
CCC(C)n1c(=O)c2sccc2n2c(CCCC(=O)N3CCN(c4ccccc4)CC3)nnc12 (stereo not given) | -13.2%
COc1cccc(Cc2nc3ccccc3nc2SCC(=O)Nc2cccc(C)c2)c1 | 15.5%
Cc1ccc(Cn2cc(S(=O)(=O)c3cccc(C)c3)c(=O)c3cc(F)c(N4CCOCC4)cc32)cc1 | -10.8%

SMILES | inhibition
O=C(Nc1cc(-c2ccccc2)sc1C(=O)O)c1cccc(F)c1 | 20.6%
COc1ccccc1-c1cc(C(=O)NCCCn2ccnc2)no1 | active: 45.9%
COc1ccc(CNC(=O)c2sc3nc4n(c(=O)c3c2C)CCCC4)cc1 | -22.5%
OC(COCC1COc2ccccc2O1)CN1CCN(c2ccccn2)CC1 (stereo not given) | active: 82.8%
CCOc1cc(C2c3c(-c4cc(C)ccc4O)n[nH]c3C(=O)N2CCCOC(C)C)ccc1O (stereo not given) | -1.59%
CCn1ccc2cc(S(=O)(=O)N3CCCN(C(=O)Nc4ccccc4F)CC3)ccc21 | 21.7%
COc1cccc(Cn2c(SCC(=O)N3CCN(c4ccc(F)cc4)CC3)nc3ccccc32)c1 | -4.71%
O=C(CSc1nnc(-c2ccc3c(c2)OCO3)o1)Oc1ccccc1 | -4.81%
O=C(COC(=O)c1cc(-c2cccs2)nc2ccccc12)c1ccc(F)cc1 | 10.6%
CCOc1ccc(-n2c(=S)sc3c(=O)[nH]c(SCC(=O)NCc4ccco4)nc32)cc1 | active: 45.2%
Cc1ccc(CN(C(=O)c2ccc(C(C)(C)C)cc2)c2ccccn2)o1 | 9.51%
CC(C)CC(=O)Nc1ccc2nc(SCC(=O)N3CCc4ccccc43)sc2c1 | 12.5%
CCOc1ccccc1CNC(=O)c1sc2ncccc2c1-n1cccc1 | -13%
CCOc1ccc(-n2cc(-c3ccccc3)c3c(Nc4cccc(F)c4)ncnc32)cc1 | -13.6%
O=C(O)CCS(=O)(=O)c1ccccc1Cl | active: 38.8%
COc1cccc(C(=O)Nc2c(C(=O)Nc3ccc(F)cc3)oc3ccccc23)c1OC | -3.4%
CCOc1ccc(C(=O)Nc2nnc(SCc3cc(=O)n4ccccc4n3)s2)cc1 | -16.4%
CCN(Cc1ccccc1)S(=O)(=O)c1cc(Br)cc2c1N(C(=O)C1CC1)CC2 | -8.25%
Cc1ccc(NC(=O)c2cnc(N3CCCC3)nc2C)cc1F | -13.2%
Cc1ccc2onc(CC(=O)N3CCN(c4cccc(Cl)c4)CC3)c2c1 | 4.4%

SMILES | inhibition
COc1ccc(NC(=O)Cn2c(=O)oc3cc(S(=O)(=O)N4CCCCCC4)ccc32)cc1OC | 9.11%
Cc1cc(F)ccc1NC(=O)Cn1cc(S(=O)(=O)NC(C)C)c(S(=O)(=O)NC(C)C)c1 | -10.9%
Cc1ccc(CN(C(=O)COc2ccccc2[N+](=O)[O-])c2ccccn2)o1 | 8.52%
O=C(Cn1nnc(-c2ccccc2NC(=O)c2ccccc2F)n1)NCc1ccco1 | active: 32.5%
O=c1oc2ccccc2cc1-c1cn2cc(Cc3cc(Cl)ccc3Cl)sc2n1 | 0.423%
COc1ccc(C2c3c(-c4ccccc4)n[nH]c3C(=O)N2c2ccc(C(=O)O)cc2)cc1 (stereo not given) | active: 39%
COc1ccc(NC(=O)C2CCCN(S(=O)(=O)c3ccc(F)cc3)C2)cc1 (stereo not given) | -2.21%
CCN(CC)S(=O)(=O)c1ccc2c(c1)N(CC(=O)Nc1cccc(C#N)c1)C(=O)CO2 | -3.55%
FC(F)(F)c1cc(-c2ccccc2)nc2cc(-c3ccccc3)nn12 | 8.83%
CCc1nnc(NC(=O)CSc2nc3c([nH]c4ccccc43)c(=O)n2-c2ccc(Cl)cc2)s1 | 9.79%
COC(=O)c1ccc(NC(=O)C(=O)NCCc2csc(-c3ccc(F)cc3)n2)cc1 | -0.71%
Cc1ccc(O)c(NC(=O)C2=CC(c3ccco3)=NS(=O)(=O)N2C)c1 | 25.3%
O=C(CSc1ncccc1C(=O)Oc1ccccc1Cl)Nc1ccc(C(F)(F)F)cc1Cl | 5.64%
Cc1csc2nc(COC(=O)CNC(=O)c3ccccc3)cc(=O)n12 | -5.18%
O=C(c1ccc(Cl)cc1)n1nc(-c2cccnc2)nc1NCc1ccc(F)cc1 | 8.68%
CCOC(=O)c1cccc(NC(=O)CCS(=O)(=O)c2ccc3c(c2)CCN3C(=O)CC)c1 | -19.4%
CC(=O)c1cccc(NC(=O)c2ccc3nc(Cc4ccccc4)oc3c2)c1 | -5.26%
CCn1c(=O)c2sccc2n2c(CCCC(=O)N3CCN(c4ccc(F)cc4)CC3)nnc12 | 1.5%
CCCCOc1ccc(C(=O)N(Cc2ccccc2)C2CCS(=O)(=O)C2)cc1 (stereo not given) | 0.446%
CCN(CC)c1ccc2cc(-c3nc4sc5c(c4c(=O)[nH]3)CCC(C(C)(C)C)C5)c(=O)oc2c1 (stereo not given) | -13.9%
